From the RNAGym collection of RNA variant scans (doi:10.7554/elife.90254)
Read counts are not given, so values of variants with three or more changes are uncertain.

B1: LINE1-mini (parent)
chain: GGCAGAGCUCAACACAGCGUGGCAAAGUGGCUGUGGCUAGACUGCC

Variants of: B1
Test: self-cleavage, relative activity (ratio to wild type); higher = more cleavage; in vitro, sequencing; the parent is a self-cleaving ribozyme

Variant | self-cleavage
GGCAGAGCUCAACACAGCGUGGCAAGGUGGACGUGGCUAGAGUGCC [A26G C31A U32C C42G] | 0.01
GUCAGAGCUCAAUCCAGCGUGGCAAAGUGGCUGUGCCUAGACUGCC [G2U C13U A14C G36C] | 0.02
GGCAGCGCUUAACACAGCGUGGCAAAGUUGCUGAGGCUAGGCUGCC [A6C C10U G29U U34A A41G] | 0.05
GGCAGAGCUCUAGACAGCGUGGCAAAGUGGCUGUCGCUAGACUGCC [A11U C13G G35C] | 0.01
GGCACAGCACAACACAGCGUCGCAAAGUGGCUUUGGCUAUACUGCC [G5C U9A G21C G33U G40U] | 0.08
GGCAGAGCUCAAUACACCGUGGCAAAUUGGCUGUGGCUACACUGCC [C13U G17C G27U G40C] | 0.12
GGCAGAGCUCAAUACAGCAUGGAUAACUGGCUGUGGCUACACAGCC [C13U G19A C23A A24U G27C G40C U43A] | 0.04
GGCAGAUCUCAACACAGCGUUGCAGGGUGGCUGUGGAUAGACUGCC [G7U G21U A25G A26G C37A] | 0.08
CGCAGAGCUCCUCACAGCGUGGCAAAGUGGCUGUGGCUUGACUACC [G1C A11C A12U A39U G44A] | 0.01
GGCAGAGCUCAACACAGCGUGGCAAGGUGGAUGUGGCCAGACUGCC [A26G C31A U38C] | 0.03
GGCAGAGAUCAACACAGCGUGGCAAAGUGGCGGUGCCGAGACUGCC [C8A U32G G36C U38G] | 0.16
GGCAGAGCUCAACACAUCUUGGCAACGUGGAUGUGGCUAGACUGCU [G17U G19U A26C C31A C46U] | 0.28
GGUAGAGCUCAACACUGCGGGGCAAAGUUGCUGUGGCUAGACUGCC [C3U A16U U20G G29U] | 0.03
GACAGAGCUCAACACAGCUUAGCAAAGUGGCUGUGGCUAGACUGCC [G2A G19U G21A] | 0.28
GGCAGAGCUCAACACAGCGUGGCCUAGUGGCUGUGGCUAGACCGCC [A24C A25U U43C] | 0.17
GGCAGAGCUCAACACAGGGUGGCAAAUUGGCUGUGGCUACACUGCC [C18G G27U G40C] | 0.04
GGCAGAGCUCAACACAGCGUGUCAAAGAGCCUUUGGCUAGACUACC [G22U U28A G30C G33U G44A] | 0.04
GGCAGAGCUCAACACAUCGUGGCAAAGUGGCUGUGUCUAGACAGCC [G17U G36U U43A] | 0.18
GGCAGAGCUCAACACAGCGUGGCAAAGUCGCUAUGGCUAGAAUGCC [G29C G33A C42A] | 0.07

Variant | self-cleavage
GGCAGGGUUCAACACAGCGUGGCAAAGUCGCUGUGGCUAGACUGCC [A6G C8U G29C] | 0.06
GGCAGAGCUCAAUACAGCGUGACAACGUGGCUGUGGCUAGACUGCC [C13U G22A A26C] | 0.1
GGCAGAGCGCAGCAGAGCGUGGUAAAGCGGCUGUGGCUAGACUGCC [U9G A12G C15G C23U U28C] | 0.02
GGCAGAGCUCAACACAGCGUGGGAAAGUGUCUGUGGCUAGACAUCC [C23G G30U U43A G44U] | 0.05
UGCAGAGCUAAACUCAGCGAGGCAAAGUGGCUGUGGCUAGACUGCC [G1U C10A A14U U20A] | 0
GGGAGAUCUCAACACAGCGUGGUAAAUUGGCUGUGGCUAGACUGCC [C3G G7U C23U G27U] | 0.04
GGCAGAGCUCGACACAGCGUGGCAAAAUAGCUGUGGCUAGACUGCC [A11G G27A G29A] | 0.01
GGCAGAGCUCAAUCCAGCGUAGCAAAGUGGCUGUGGCUAGACUACC [C13U A14C G21A G44A] | 0.05
GGCUGAGCUCAACACAGAGUGGCAAAGUGGUUGUGGCUAGACUGCC [A4U C18A C31U] | 0
GGCAGAGCUCAACAUACCGUGGCAGAGUGGCUGUGGCUAGACUGCC [C15U G17C A25G] | 0.01
GGCAGAGCUCAACACAGCGUGACAAAGUGGCUCUGGCUAGACUAGC [G22A G33C G44A C45G] | 0.11
GGCGAAGAUCAACACAGCGUGGCAAAGUGGCUGUGGGUAGACUGCC [A4G G5A C8A C37G] | 0.2
GGCAGAGAUCAAUACAGCGUUGCAAAGUGGCAGUGGCUAGACUGCC [C8A C13U G21U U32A] | 0.86
GGCAGAGCUCAACUCAGCGUGGCAAAUUGCCUGUGGCUAGACUGCC [A14U G27U G30C] | 0.11
GGCAGAGCUAAACACAGCGUGGCAAAGUGGCUGUGGCUAGACUGGU [C10A C45G C46U] | 0.02
GGCAGAGCUCAACACAGCGUGGCAAAGUGGGUGUGGCUGGACUACC [C31G A39G G44A] | 0
GGCAGAGUUCAACACAGCGUGGAAAAGUGGCUGUUGCUAGACUGCC [C8U C23A G35U] | 0.51
GGCGGAGCUCAACACAGCGUGGCAAAGUGGCUGUGGCUAAACUGCG [A4G G40A C46G] | 0.03
GACCGAGCUCAACACAGCGUCGCAAAGUGGCUGUGGCUAGACUGCC [G2A A4C G21C] | 0.09

Variant | self-cleavage
UGCCGAGCUCGACACAGCGUGGCAAGGUGGCUGUGGCUGGACUGCC [G1U A4C A11G A26G A39G] | 0.01
UGCAGAGCUCAACACAGCGUGGCAAAGUGGCAGCGGCUAGACUGCC [G1U U32A U34C] | 0.01
GGCAGAUUUCAACACAGCGUGGCAAAGUGGCUGUGGCUCGACUGCA [G7U C8U A39C C46A] | 0.28
GGUAGAGCUCAACAAAGCGUGGCAAAGUGUAUGUGGCUAGACUGCC [C3U C15A G30U C31A] | 0.08
GGCUUAGCUCAACACAGGGUGGCAAAGUGGCUGUGGCUAGACUCCC [A4U G5U C18G G44C] | 0.04
AGCAGAGCUCAUCACAGCUUGGCAAAGGGGCUGUGGCUAGACUGCC [G1A A12U G19U U28G] | 0.11
GGGAGCGCUCAACACAGCGUGGCAAAGUGGCUGUGGCUAGACUAAC [C3G A6C G44A C45A] | 0.14
GGCAGAGGUCAACACAGCGAGGCGAAGUGGCUGUGGCUAGACUGCC [C8G U20A A24G] | 0.04
GGCAGAGCUAAACCGCGCGUGGCAAAGUGGCUGUGGCUAGACUGCC [C10A A14C C15G A16C] | 0
GGCAGACAUCAACACAGCGUGGCAAAGUGCCUGUGGCUAUAUGGCC [G7C C8A G30C G40U C42U U43G] | 0.13
GGCAGAGUUCAACACAGCGUGGCAAAGUGGCUGUGGAUAGACCGCC [C8U C37A U43C] | 0.29
GGAACAACUCAACACAGCGUGGCAAAGUGGCUGUGGCUAGACUGCC [C3A G5C G7A] | 0.56
GGCUGAGUUCAACACUGUGUGGCAAAGUGGCUGUGGCUAGACUGCU [A4U C8U A16U C18U C46U] | 0.01
GCCAGUGCUCAGCACAGCGUGGCAAAGUGGCUAUGGCUAGACUGCC [G2C A6U A12G G33A] | 0.22
GGCAUAGCUCAACACAGCAUGGCAAAGUGACUGUGGCUAGGCUGAC [G5U G19A G30A A41G C45A] | 0.08
GGCAGAGCUCAACACAGCCUGAAAAAGUGGCUGUGGCUAGACUGCC [G19C G22A C23A] | 0.26
GGCAGAGCUCAACACAGCGGCGCAAAGUGGCUGUGGCUAGACUUCC [U20G G21C G44U] | 0.62
GGCAGAGCGCAACACAGCGUGGCAAAGUGGCUGUGUCUAGAUUGCC [U9G G36U C42U] | 0.13
